{"source": "paper PMC12136788", "binders": {"B1": {"name": "chr5:54693298:54693299:+_ENSG00000039123_ENST00000230640|hu_hu|motif|central (ssRNA)", "RNA": "GGGAGUUCUACAGUCCGACGAUCUUUUAAAACACUCUGUCUAUUGUCCACCGGCCGAAGGUCUUUAGGAAUGUAAAGCCGGACACUGCUGAUAGCAGACAGGAGAUGCACCAAAACUGGGACAACCUGCAUCUCUCCUUUCUCCAACAGAGGAUUGAGCAUCA"}, "B2": {"name": "chr8:117878989:117878990:-_ENSG00000164754_ENST00000297338|hu_hu|hu_hu_hu_mus_True|18_48 (ssRNA)", "RNA": "GGGAGUUCUACAGUCCGACGAUCCCAGAGGCCCUCGUUUACUGAGGACAAAAUGUGCGUAGAACAUUUUUCUUAUUUGCUAUGAAAACAGAAGAAACCUGGAUCUCGGCGGGGAGCUUGGGCGGGCGGGUGGCCCGGGGAGGGCAACAGAGGAUUGAGCAUCA"}, "B3": {"name": "64572114_64572234_1574_CDS_ENSG00000133895_ENST00000312049|human|control|control (ssRNA)", "RNA": "GGGAGUUCUACAGUCCGACGAUCCUGGCCGGUGCCCAGGCCCUUGUCCAGUGCUGGCUUCUUGGGCGGCGGGGGCUCCUCUGGCUUGGACUCCCGCCGUGGGCCCCGCCGCCGGCCUUCCCGGGCUUCCUCGCCCCACGGCUCCAACAGAGGAUUGAGCAUCA"}, "B4": {"name": "chr3:102850973:102850974:+_ENSMUSG00000068823_ENSMUST00000029446|mus_mus|motif|central (ssRNA)", "RNA": "GGGAGUUCUACAGUCCGACGAUCACGAUGAUCUGAAUGGGAAUGGAAUGAAACCGUGCCCUUGGGAAGUUUUUUAAUCCGGAUAGCAUGAUUUCUUUGGGCAGAGAGCAUAUCAGGAACCACAGUAAACUCUACUUCAUCUGCCAACAGAGGAUUGAGCAUCA"}, "B5": {"name": "chr7:140404665:140404666:+_ENSG00000090266_ENST00000247866|hu_hu|hu_hu_hu_mus_False|38_88 (ssRNA)", "RNA": "GGGAGUUCUACAGUCCGACGAUCUGCUCCUACUCGUCCAGAGAGUUUACACCUUCAGUCCUCGUCAUCAGGAGGGAUUCCCAGUUCUUCAUCUGUCCACUGGGAAGGAUCUGGAUAUGAAAAGUGACCCAGCACAGCAUCCGACAACAGAGGAUUGAGCAUCA"}, "B6": {"name": "chr15:43699750:43699751:-_ENSG00000067369_ENST00000382044|hu_mus|FALSE|FALSE (ssRNA)", "RNA": "GGGAGUUCUACAGUCCGACGAUCACACUUGAGCACCGAGGCUGGGCAUGAGGGGUCUGUCACCACCACAUCAAAUACCCCUAAAGCAAUGUCUUUGUUGUGGGCACUUGAAUGGUGCUGCUUCACAGAGGCUGCCCCUCCAGUCAACAGAGGAUUGAGCAUCA"}, "B7": {"name": "59389766_59402276_1209_3pUTR_ENSMUSG00000074746_ENSMUST00000099274|mouse|control|control (ssRNA)", "RNA": "GGGAGUUCUACAGUCCGACGAUCUGUUUUUCUUCCCAAACACCACUGCUCAGCUCAAGUGUGCAAUGAACAUUUGUUUCUCUGUCAUAGGAUCCAAAAAUGAAUAACCUGCUACAUUCUAACAAUGUAACUUUAAGCCGGCCUCAACAGAGGAUUGAGCAUCA"}, "B8": {"name": "139305153_139306530_102_CDS_ENSG00000165688_ENST00000371717|human|control|control (ssRNA)", "RNA": "GGGAGUUCUACAGUCCGACGAUCUACUCCAGGUAAGGGAGAAGAGAGGGGGAUGUUGGGAUAGGCACCACCACUACUAAACCGUCUGUACGCAGGAGGUCCAAACCUCAGCCGCGAACAGCCCCAAGAACCCGAGCCCCGCAGCAACAGAGGAUUGAGCAUCA"}, "B9": {"name": "chr19:8913615:8913616:-_ENSMUSG00000071658_ENSMUST00000096259|mus_hu|mus_mus_mus_hu_False|8_38 (ssRNA)", "RNA": "GGGAGUUCUACAGUCCGACGAUCAGGGUACCAAAACCUUCUGCCUGAAAUGGGUGCCCCACCCAGUAGGGAGUUGCAGCUGAAAGUAUCUGAUGCACUGACAGUUACUAUACGAAAGGAGGCCCCUGAUGCUCAGAAGGCCAGCAACAGAGGAUUGAGCAUCA"}, "B10": {"name": "chr1:193065829:193065830:-_ENSG00000023572_ENST00000367439|hu_hu|motif|central (ssRNA)", "RNA": "GGGAGUUCUACAGUCCGACGAUCUUUUUUUAAAUAACACUGAUGAACUAGUGGGAGCAAUUUUCCUUCUUUGUGAAGCCGGUGAGUGUCAGUUGCACCUCCAAUAAAAGUACCAUUGACAAAUAUUCUUGGAACAGUUCUUUCCAACAGAGGAUUGAGCAUCA"}, "B11": {"name": "28694835_28713128_1523_3pUTR_ENSMUSG00000048271_ENSMUST00000114884|mouse|control|control (ssRNA)", "RNA": "GGGAGUUCUACAGUCCGACGAUCUGGGGGUGGGGCUCUCCACUGGUCCUGGAGAGGAAGUCUAGGUGGCUGGUUAAAACUGUUGGGAACAGGUCCAGGUGUGUGCUGUGGAAAUUCUGGAGGGCCUGGAAAUCUUUGGGGUCCCAACAGAGGAUUGAGCAUCA"}, "B12": {"name": "chr14:34224135:34224136:-_ENSMUSG00000021936_ENSMUST00000111945|mus_mus|motif|central (ssRNA)", "RNA": "GGGAGUUCUACAGUCCGACGAUCCUUUAAAUUCUGGUAUCGUUUUAGGACUGUGAAUGUAGAAUCUCCAAUCUCGGCACGGUAAAAAUUGUUGUCACGUUUGCUUCUGCUCAUGAUGGCAAGCAAUUAGUCUAAUGGCUUCAUCAACAGAGGAUUGAGCAUCA"}, "B13": {"name": "chr20:60962932:60962933:+_ENSG00000171858_ENST00000343986|hu_mus|FALSE|FALSE (ssRNA)", "RNA": "GGGAGUUCUACAGUCCGACGAUCAGAAUCAUCUGACUCGCCCAUCCUGCGAAUGGCCCCGCAGAUGCCAUAGGUUUUAAACUGGCCAUUAAACCGGCCUGUGGUCCUAUCAACCUCGGCCACGUUCAUCUGGAUGGACGCGUGCAACAGAGGAUUGAGCAUCA"}, "B14": {"name": "chr7:65705475:65705476:+_ENSG00000169902_ENST00000304842|hu_hu|hu_hu_hu_mus_True|18_108 (ssRNA)", "RNA": "GGGAGUUCUACAGUCCGACGAUCUCUAUCCGGUGAUGGCACUCCAUGGCAUGCUGGCCCAGGUAAAACACGGUCACAGAACUAAUCACCAGACACGCCAAGAGUAAGUUCUGCUUCAGCUUUCCAACCAUCUUGAUGUGGUUACAACAGAGGAUUGAGCAUCA"}, "B15": {"name": "chrX:70776531:70776532:+_ENSG00000147162_ENST00000373719|perfect_dup|motif|central (ssRNA)", "RNA": "GGGAGUUCUACAGUCCGACGAUCCUGCUGCAGUACACUUGCUAAAUUUGAAUGGGCAGCAGCAAACUCUGGGAAGACUUCGGAUGCUUUACGAUACAAGCGAACUGCCUCUUCAAUGUUUCCCUGUUCUCGUUUGAUAUUGGCCAACAGAGGAUUGAGCAUCA"}, "B16": {"name": "chr7:112906983:112906984:-_ENSMUSG00000036862_ENSMUST00000078482|mus_hu|FALSE|FALSE (ssRNA)", "RNA": "GGGAGUUCUACAGUCCGACGAUCGGGGGAGACAAUAGGAGUCCCUGGGGGCGCAUUCUCACGAAUCGUAGCCUCACUGCUAGCCCGGGGAAAGCGGGGUCCACGCUCAGCUUCCCCCUGCAGUCCAACAAUGAUCACACCAGUCAACAGAGGAUUGAGCAUCA"}, "B17": {"name": "chr7:44244176:44244177:+_ENSG00000106636_ENST00000223369|hu_mus|hu_hu_hu_mus_False|38_58 (ssRNA)", "RNA": "GGGAGUUCUACAGUCCGACGAUCACUGUCGCUCCGGACGUAGACAUGGCAAAGAUACUCUUGUUCUUUGACAGAAGCUCUAGUGCCUUUCCCCGAGCGCUCCACAAUCAGUUGACUUGUAAAGGUCAUGAAUUCCUGCACACUCAACAGAGGAUUGAGCAUCA"}, "B18": {"name": "67696332_67698441_936_CDS_ENSG00000111530_ENST00000540319|human|control|control (ssRNA)", "RNA": "GGGAGUUCUACAGUCCGACGAUCGGUCUUCACACUUUUUUCUUUCAUCUGUUUGUGAAGAGCUUUAACAAUGUUGGGAACCUGACUCUGAAGCAUUGUUAAAGGUGUUUCUCCCUGCUCCAUUGCAUCAGGGUCACAUAGCCACAACAGAGGAUUGAGCAUCA"}, "B19": {"name": "chr7:54823571:54823572:-_ENSG00000132432_ENST00000352861|hu_mus|hu_hu_hu_mus_False|8_28 (ssRNA)", "RNA": "GGGAGUUCUACAGUCCGACGAUCUCCCAUGAUAGCAAAUCCUAUAGCUGUAGCCAUGGCAAUCUUCUGGAAUUCUUUUCUGUCGGGUUUGGUGCAUCUUUUAACCAGCCGAAUGGAGUCCUUUACAAACUGCCGACUGGGCUCCAACAGAGGAUUGAGCAUCA"}, "B20": {"name": "chr9:66219948:66219949:+_ENSMUSG00000038664_ENSMUST00000042824|mus_mus|FALSE|FALSE (ssRNA)", "RNA": "GGGAGUUCUACAGUCCGACGAUCCUGUUUCACUUUGCCUUUGUCAUGGUACUUAUUAGAAAGUGCAUAAAAGACACGUUGGAGUACAAGCAGUCGUUUUCUUAGCGCCCCAGCAAAUGGAGAAUCUGAACAUACCAUCUUUGCCAACAGAGGAUUGAGCAUCA"}, "B21": {"name": "chr19:33076771:33076772:+_ENSG00000105185_ENST00000590247|hu_mus|motif|central (ssRNA)", "RNA": "GGGAGUUCUACAGUCCGACGAUCCGCCAUCUGUAUAAGGUAGUUCUCCACUGCUUUAGUUUUUUCAGGCUUUACAAGUGCGGAGUUACUUAAUCUGGCCCGGGCUGACUGAUCCAGAACUUGGGCUAAGAUACUGUUUCUCAUCAACAGAGGAUUGAGCAUCA"}, "B22": {"name": "chr18:211299:211300:+_ENSG00000101557_ENST00000383589|hu_hu|FALSE|FALSE (ssRNA)", "RNA": "GGGAGUUCUACAGUCCGACGAUCUCUGGAUUAUAGAAAUGAUCAACAAAUAACAUUUAUUUUCACAUCUAAGCAUAAAUACUAAAAUGAAGAUUACUGUUCACUUUCCUCUUCCAUUAUUUCAACUCUGCGAGGCCCAUAGAGCAACAGAGGAUUGAGCAUCA"}}, "note": "This is one part of the list.", "data": [{"target": "T1, UNK ZnF1-3 (human, UniProt Q9C0B0 31-174)", "T1 sequence": "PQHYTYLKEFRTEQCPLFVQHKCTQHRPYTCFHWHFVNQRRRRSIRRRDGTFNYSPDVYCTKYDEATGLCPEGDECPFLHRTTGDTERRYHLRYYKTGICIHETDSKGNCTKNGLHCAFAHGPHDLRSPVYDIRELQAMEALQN", "experiment": "nsRBNS (natural sequence RNA bind-n-seq); RBNS binding buffer (assumed for nsRBNS): 25 mM Tris pH 7.5, 150 mM KCl, 3 mM MgCl2, 0.01% Triton X-100, 500 ug/ml BSA, 20 U/ml SUPERase-In, 4 C; UNK is unkempt and MSI1 is Musashi-1; names of the RNAs are library labels; protein concentration not given here; high values mean tight binding", "units": {"binding signal": "enrichment R"}, "values": [{"binder": "B1", "binding signal": 0.864}, {"binder": "B2", "binding signal": 1.39}, {"binder": "B3", "binding signal": 1.79}, {"binder": "B4", "binding signal": 1.24}, {"binder": "B5", "binding signal": 1.56}, {"binder": "B6", "binding signal": 0.903}, {"binder": "B7", "binding signal": 0.858}, {"binder": "B8", "binding signal": 1.63}, {"binder": "B9", "binding signal": 0.756}, {"binder": "B10", "binding signal": 1.27}, {"binder": "B11", "binding signal": 1.6}, {"binder": "B12", "binding signal": 0.68}, {"binder": "B13", "binding signal": 0.281}, {"binder": "B14", "binding signal": 0.54}, {"binder": "B15", "binding signal": 0.919}, {"binder": "B16", "binding signal": 0.809}, {"binder": "B17", "binding signal": 0.718}, {"binder": "B18", "binding signal": 0.43}, {"binder": "B19", "binding signal": 0.781}, {"binder": "B20", "binding signal": 1.16}, {"binder": "B21", "binding signal": 0.632}, {"binder": "B22", "binding signal": 1.2}]}]}
